# Data from PubChem BioAssay AID624417 (National Center for Advancing Translational Sciences (NCATS), 2012).
# In all, about 410,000 compounds went through this assay and about 6,400 (1.6%) were called active. The inconclusive results got no clear call from the source; some entries with a clear call stand among them for comparison. Calls come from the whole dose curve; as a rule, active = well fitted inhibition curve with a large enough effect; inconclusive = small, poorly fitted or top-dose-only effect; inactive = no such curve, though single readings can be large or run the other way. Potencies of inconclusive entries are left out as doubtful fits.
# Biological target: Glucagon-like peptide 1 receptor (Homo sapiens) (UniProt P43220)
# Chain of UniProt P43220 (P43220 whole entry, looked up): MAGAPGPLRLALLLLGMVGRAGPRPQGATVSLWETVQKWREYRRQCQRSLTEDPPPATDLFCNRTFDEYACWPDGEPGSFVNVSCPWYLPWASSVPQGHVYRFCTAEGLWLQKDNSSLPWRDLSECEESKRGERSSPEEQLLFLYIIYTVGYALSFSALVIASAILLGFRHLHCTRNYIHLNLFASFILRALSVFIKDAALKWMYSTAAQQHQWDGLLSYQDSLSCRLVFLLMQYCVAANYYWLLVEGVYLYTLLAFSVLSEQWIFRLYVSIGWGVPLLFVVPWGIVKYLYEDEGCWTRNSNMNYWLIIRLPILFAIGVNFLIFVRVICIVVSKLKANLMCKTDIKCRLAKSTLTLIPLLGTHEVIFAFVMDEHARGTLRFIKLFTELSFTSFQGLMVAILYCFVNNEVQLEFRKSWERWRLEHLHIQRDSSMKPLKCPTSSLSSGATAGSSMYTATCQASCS
# Test: qHTS of GLP-1 Receptor Inverse Agonists (Inhibition Mode); note: nearly all actives have a fitted effect of over 55% in size
# Settings: HEK293 GLP-1R CRE-luciferase, luminescence, 24 h, GLP-1R form is constitutively active; activity change, negative = inhibition: at 38.3 µM (top of the series) unless noted
# Outline: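 Inverse agonists were sought by their lowering of basal cAMP reporter luciferase output in HEK293 cells stably carrying constitutively active human GLP-1R, after 24 h compound treatment.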
# % is set by controls: 0 for no effect and ±100 for the full control effect; potency is the fitted concentration of half-maximal effect; tags give direction and shape of the fitted curve.
SMILES,Potency,"activity change, negative = inhibition"
CS(=O)(=O)N(Cc1ccc(Cl)cc1)c1ccc(C(=O)Nc2cccnc2)cc1,"inconclusive [inhibitor, single point]",
N#C/C(=C\c1c(Oc2ccc(Br)cc2)nc2ccccn2c1=O)c1nc2ccccc2s1,,inactive: 7.16%
O=C(CSc1nc2ccccc2n1CC(=O)N1CCCCC1)N1CCCCC1,,inactive: 4.96%
COc1cccc(C2=NOC(C(=O)N3CCN(c4ccccc4)CC3)C2)c1OC (stereo not given),"inconclusive [inhibitor, single point]",
Cn1cnc2c(N/N=C/c3cccs3)ncnc21,"inconclusive [inhibitor, single point]",
COc1cc(C(=O)Nc2ccc3c(c2)ncn3C)cc(OC)c1OC,"inconclusive [inhibitor, full curve, poor fit]",
Cc1ccc(Cc2nc3ccccc3nc2SCC(=O)N2CCCCC2C)cc1 (stereo not given),active: 10 µM,
COC(=O)c1sccc1NC(=O)c1cc(-c2cc(C)ccc2C)nc2ccccc12,,inactive: 0%
Cc1nc2cc(NC(=O)N3CCN(c4ccccn4)CC3)ccc2o1,,inactive: 4.27%
CCOc1cc(CNc2ccc(O)cc2)cc(Br)c1OCc1ccccc1F,"inconclusive [inhibitor, partial curve, poor fit]",
O=C(NCc1ccccc1)C(c1ccc(F)cc1)N(C(=O)c1csnn1)C1CC1 (stereo not given),"inconclusive [inhibitor, partial curve]",
COc1ccccc1OCC(=O)NCC1(N(C)C)CCCCC1,,inactive: -13.6%
CN(C)c1ccc(C(=O)OCC(=O)NCCCc2ccccc2)cc1,"inconclusive [inhibitor, single point]",
CC(C)CCNC(=O)c1ccc2c(c1)N(Cc1ccccc1F)C(=O)c1ccccc1S2=O (stereo not given),"inconclusive [inhibitor, partial curve]",
CN(C)C(CNC(=O)c1ccc(NC(=O)c2cccs2)cc1)c1ccccc1 (stereo not given),"inconclusive [inhibitor, partial curve, poor fit]",
COc1ccc(C(=O)NCCSc2ccccn2)cc1,"inconclusive [inhibitor, partial curve]",
CCCC(=O)OCCNc1cc(Sc2nc3ccccc3[nH]2)c2nonc2c1[N+](=O)[O-],"inconclusive [inhibitor, single point]",
Cc1ccc(Cn2c(CCCNC(=O)C3CCCCC3)nc3ccccc32)cc1,"inconclusive [inhibitor, single point]",
C/C(=N\NC(=O)c1cc(C2CC2)nc2ccccc12)c1ccc(C)s1,,inactive: -20.2%
CC1=CC(C)(C)N(C(=O)C(C)N2C(=O)c3ccccc3C2=O)c2ccc(C)cc21 (stereo not given),"inconclusive [inhibitor, single point]",
